This data set concerns CCRIS mutagenicity, Ames/micronucleus/aberration tests. Nature of the data set: CCRIS mutagenicity studies. The settings on record: Test System: AMES SALMONELLA TYPHIMURIUM
The mark [1] stands for this setting: Strain/Indicator: TA98, Metabolic Activation: NONE, Method: PREINCUBATION

SMILES strings stand for the structures. For part of its entries the source gives two or more results. The list is limited to them. The rule behind the calls is not given here. The source may hold further records. Values that stand side by side repeat one measurement in other runs, samples, wells, individuals or studies. What stands in brackets tells the records apart. A, B and so on number the origins entry by entry.

As for `Nc1ccc(N)c2ccccc12`, the mutagenic call is “inactive; negative [study A, 33 to 3333 µg/plate] and active; positive [study B, 3 to 33 µg/plate]” (Strain/Indicator: TA98, Metabolic Activation: HAMSTER, LIVER, S-9, AROCLOR 1254 (10%), Method: PREINCUBATION); “inactive; negative [study A, 33 to 3333 µg/plate] and active; positive [study B, 3 to 66 µg/plate]” (Strain/Indicator: TA100, Metabolic Activation: HAMSTER, LIVER, S-9, AROCLOR 1254 (10%), Method: PREINCUBATION); “inactive; negative [study A, 0.33 to 33 µg/plate] and active; positive [study B, 3 to 11 µg/plate]” (Strain/Indicator: TA100, Metabolic Activation: NONE, Method: PREINCUBATION).

Take `CCCCC(CC)COCC1CO1` (stereo not given): the mutagenic call (Strain/Indicator: TA100, Metabolic Activation: RAT, LIVER, S-9, AROCLOR 1254 (10%), Method: PREINCUBATION) is “inactive; negative [study A] and active; positive [study B]”.

Consider `Oc1cc2c3ccccc3ccc2c2ccccc12`, for which the mutagenic call (Strain/Indicator: TA100, Metabolic Activation: RAT, LIVER, S-9, AROCLOR 1254, Method: STANDARD PLATE) was “active; positive [study A, 0 to 50 µg/plate] and inactive; negative [study B, 0 to 50 µg/plate]”.

Regarding `CCN(CC)N=O`, for the setting “Strain/Indicator: TA100, Metabolic Activation: RAT, LIVER, S-9, Method: STANDARD PLATE”, the mutagenic call was “inactive; negative [study A] and active; positive [study B]”.

As for `O=C(Cl)c1ccccc1[N+](=O)[O-]`, under setting [1], the mutagenic call is “inactive; negative [study A, 0 to 1000 µg/plate] and active; positive [study B, 10 to 1000 µg/plate]”.

For `O=C1c2cc(O)cc(O)c2C(=O)c2c(O)cc(CO)cc21`, the mutagenic call (Strain/Indicator: TA1537, Metabolic Activation: NONE, Method: STANDARD PLATE) was “active; positive [study A, 2 to 50 µg/plate] and inactive; negative [study B, 10 to 100 µg/plate]”.

As for `Nc1ccc2ccccc2c1`, the mutagenic call (Strain/Indicator: TA1538, Metabolic Activation: RAT, LIVER, S-9, AROCLOR 1254, Method: STANDARD PLATE) was “inactive; negative [study A] and active; positive [study B]”.

For the compound `O=C(O)c1ccc([N+](=O)[O-])cc1[N+](=O)[O-]`, under setting [1], the mutagenic call was “active; positive [study A] and inactive; negative [study B]”.

The values above are taken from PubChem BioAssay AID1259407 (Chemical Carcinogenesis Research Information System (CCRIS), 2018).
